This is one part of the list.

This test deals with T1, OsWOX13 (Oryza sativa, UniProt Q5QMM3 1-267).
T1 sequence: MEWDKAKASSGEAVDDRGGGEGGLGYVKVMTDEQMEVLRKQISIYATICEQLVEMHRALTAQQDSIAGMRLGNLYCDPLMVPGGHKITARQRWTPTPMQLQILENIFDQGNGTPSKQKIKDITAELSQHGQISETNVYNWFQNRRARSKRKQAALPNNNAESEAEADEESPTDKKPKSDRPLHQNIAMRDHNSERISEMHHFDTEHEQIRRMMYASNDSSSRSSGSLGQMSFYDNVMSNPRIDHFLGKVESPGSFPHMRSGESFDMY
The test is described as follows: protein-binding microarray (RPBM); PBS, 2% BSA, 51.3 ng/ul salmon testes DNA, 50 uM zinc acetate, 200 nM TF, 25 C, 1 h; high values mean tight binding. The settings on record: protein: recombinant; tags: N-terminal polyhistidine and DsRed monomer fusion (pET32a); label: CyDye5-dUTP incorporated in the synthesized complementary strand; 3' TTTTT single-stranded linker to array surface; dsDNA, one strand shown. Summed up: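 Binding signal is reported as fluorescence intensity per feature (arbitrary units) from an Axon 4000B scanner. Incubation used 200 nM of each Ni–NTA-purified, N-terminally polyhistidine- and DsRed-fused transcription factor from E. coli BL21-CodonPlus on a double-stranded custom Agilent array for 1 h at 25 °C, with 50 µM zinc acetate in the buffer, followed by washing.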
In the case of “GTGTTGATCTGATGGATGCAGCAATTTGCTGCTGTTGTCGCGGAGTCACCTAGTGCAG”, the binding signal is 3740 fluorescence intensity (a.u.). Take “TTTATTGATTAAACATAATGGTTACAATCCCGCAAAATAACGGAGTCACCTAGTGCAG”: the binding signal is 15900 fluorescence intensity (a.u.).

For “ACCCTATTTTAATTACCACATTATATGCATACATTTCATGCGGAGTCACCTAGTGCAG”, the binding signal was 8300 fluorescence intensity (a.u.). With “ATTTATGATTAACATATATTATTATGTACAAGTAGGTGATCGGAGTCACCTAGTGCAG” the figure was 24500 fluorescence intensity (a.u.). Consider “AATAAAATTATCGATATTATGTTCGGTTTTCCTTCATACACGGAGTCACCTAGTGCAG”, for which the binding signal is 3410 fluorescence intensity (a.u.). With “CTTTAGATCTGATTAAGTTTGAATGAAAATTTAGCTATATCGGAGTCACCTAGTGCAG” the figure was 6620 fluorescence intensity (a.u.). Consider “CTAACTTGATTAAAAGAGATCCATATAACAGAATTTCAAACGGAGTCACCTAGTGCAG”, for which the binding signal is 5620 fluorescence intensity (a.u.). “ATCGTGTAATTTTATTACAGTTATATCAAACACAAGGGAACGGAGTCACCTAGTGCAG”: the binding signal is 4950 fluorescence intensity (a.u.). For the sequence “ATTTAAGATGTGATTGAAGAACTCAAAAGCCTGTAATATCCGGAGTCACCTAGTGCAG”, the binding signal is 15700 fluorescence intensity (a.u.). Regarding “TTTACAAATTACAAATGTTCTTACATAATATAATCAACCTCGGAGTCACCTAGTGCAG”, the binding signal is 6470 fluorescence intensity (a.u.). On to “GTAGTGTGATGGATGATCGATGGTGGTGACCCATTACCAACGGAGTCACCTAGTGCAG”, for which the binding signal was 3880 fluorescence intensity (a.u.). With “CATAATTTCATTAATAGTTATAATATTTTAAGTATATATTCGGAGTCACCTAGTGCAG” the figure was 6800 fluorescence intensity (a.u.). Regarding “GTATGGGAATTGATTGCTAGACTAGTGTACAAAAGCTGGGCGGAGTCACCTAGTGCAG”, the binding signal was 40300 fluorescence intensity (a.u.). With “GAAATGGTTGAGTTAATTGTTATCTTTACAGACTGGTACACGGAGTCACCTAGTGCAG” the figure was 9740 fluorescence intensity (a.u.). For the sequence “ACGCGTGATTAATGGTTAACAGATTAAGGTCAAGCGAAATCGGAGTCACCTAGTGCAG”, the binding signal is 44700 fluorescence intensity (a.u.). With “ATGAAAGGAGTTGATTTGCACCGGTTTTCAAAGATGAAAACGGAGTCACCTAGTGCAG” the figure was 3470 fluorescence intensity (a.u.). With “TTAACAATATTTTAATGATTGCTCTTGTGCTTAGAAAATTCGGAGTCACCTAGTGCAG” the figure was 5300 fluorescence intensity (a.u.). With “ATTCGACCACTAATTAAGGGAGTCAATGTGAACTTATTCCCGGAGTCACCTAGTGCAG” the figure was 3290 fluorescence intensity (a.u.); with “AAATATCAATCTCCGTCCACAAATATAAGAAAACCCTGACCGGAGTCACCTAGTGCAG”, 4160 fluorescence intensity (a.u.); with “TCTTACCAAGTCAATCGCCAATCACGGCTGTCCATACGGACGGAGTCACCTAGTGCAG”, 11900 fluorescence intensity (a.u.). Turning to “ATTTCGGCAAAATTGAAACCGATTGATCTCATTATTTCCTCGGAGTCACCTAGTGCAG”, the binding signal was 3810 fluorescence intensity (a.u.).

In the case of “ATAATTTGGTCCCATCATAATTAATGTGGTAATTTATATGCGGAGTCACCTAGTGCAG”, the binding signal was 17800 fluorescence intensity (a.u.). Regarding “TTTCTCTCCAAATTAATTTTGTGACTGTCTTATGATAGAGCGGAGTCACCTAGTGCAG”, the binding signal is 22800 fluorescence intensity (a.u.). With “CTGCTCCATGACAACTGATCAATTAAGGAAGACTATACAACGGAGTCACCTAGTGCAG” the figure was 5710 fluorescence intensity (a.u.). Consider “AATTATTTGTTTGTAATTATTGTAGTTTGTGTGGGTACAACGGAGTCACCTAGTGCAG”, for which the binding signal is 7520 fluorescence intensity (a.u.). With “TCAAATTTTAATAAATATATAGGAAATCCTGTCAAAATTTCGGAGTCACCTAGTGCAG” the figure was 5180 fluorescence intensity (a.u.); with “CAGACTTAACAATAATTTTATCATAGAACTATAGATTAAGCGGAGTCACCTAGTGCAG”, 6950 fluorescence intensity (a.u.); with “TTAACTAAGGGTAAATTGGAACCATGCTATTATAATTTTGCGGAGTCACCTAGTGCAG”, 11700 fluorescence intensity (a.u.).

Turning to “CGTACCAAACTTAATTAGGGCTCGAGCTAATTAACTAACTCGGAGTCACCTAGTGCAG”, the binding signal was 6670 fluorescence intensity (a.u.). With “TCTAAATCATAACTTAATAGCCAATTCATACAATAGTTATCGGAGTCACCTAGTGCAG” the figure was 10200 fluorescence intensity (a.u.); with “ATATATATATATATATATATATATATATATATATCTCCTACGGAGTCACCTAGTGCAG”, 13500 fluorescence intensity (a.u.); with “TATTAAGTCTAATTATTCCGTCATTAGCACATATAGGTTACGGAGTCACCTAGTGCAG”, 6060 fluorescence intensity (a.u.).

For the sequence “CATATGATGCCTCTGATTGTTCCTTGGCAGGCTATTCCCACGGAGTCACCTAGTGCAG”, the binding signal is 3220 fluorescence intensity (a.u.). Consider “CTAATTTAGAACTGGATGTGACACATTCTATTACTATCCCCGGAGTCACCTAGTGCAG”, for which the binding signal was 4040 fluorescence intensity (a.u.). For “AGCTAATTTCTCGCCTCTCCGACCAATTTGTAATCGATGGCGGAGTCACCTAGTGCAG”, the binding signal was 9680 fluorescence intensity (a.u.). Consider “ATCATCATTGTGACAGATAATCATAGAAGAGAGAGAAACACGGAGTCACCTAGTGCAG”, for which the binding signal was 8540 fluorescence intensity (a.u.). “CACTTCCTAATTGATTAAGCCAAGCTCAGAGTGATTCGACCGGAGTCACCTAGTGCAG”: the binding signal is 49900 fluorescence intensity (a.u.). With “CCACATAAATTAACAAAATTAAAGTCAGTAATAATACCTTCGGAGTCACCTAGTGCAG” the figure was 21000 fluorescence intensity (a.u.); with “CACAAACTTCAATGCAATGATTACTCCAAAATTAACTTATCGGAGTCACCTAGTGCAG”, 3190 fluorescence intensity (a.u.); with “ATATATATATATATATATATATATATATATATTGGCAATTCGGAGTCACCTAGTGCAG”, 18200 fluorescence intensity (a.u.). “TTGGATTGAAGCCAAAATAGCCTAAGTTTACTATTGAAATCGGAGTCACCTAGTGCAG”: the binding signal is 7310 fluorescence intensity (a.u.).

Take “CCAAATTACGGCAAATCATGGAACGGTAGAATCGCGACATCGGAGTCACCTAGTGCAG”: the binding signal was 28500 fluorescence intensity (a.u.).

The values above are taken from paper PMC7819943, “Rice protein-binding microarrays: a tool to detect cis-acting elements near promoter regions in rice”.
